Measured values: ChEMBL document CHEMBL5303300, “EUbOPEN Chemogenomics Library - Multiplex” (2023)
Some entries of the source have several records that differ or are many. Only these are listed. An entry can have further records. The records of an entry are repeats in other runs, samples, wells, individuals or studies.

How the values were obtained:
Format in all cases: toxicity, cell-based
U2OS = experiment: Multiplex assay against U2OS; details: human, number of replicates 2
Outline: (§1)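 Cells stained live at seeding with Hoechst33342, BioTracker Green Microtubule Cytoskeleton Dye, MitoTracker Red and Annexin V Alexa Fluor 680 were imaged on a CQ1 microscope at 37°C and 5% CO2 after compound addition. Their classification by CellPathfinder machine-learning gating ran from Hoechst high-intensity objects versus normal cells, to healthy, pyknosed or fragmented nuclei among normal cells, to mitotic or apoptotic among pyknosed cells. Tubulin, mitochondrial-mass and membrane-permeability phenotypes are per cents of healthy-nucleus cells.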

Fibroblast = experiment: Multiplex assay against human fibroblast; details: number of replicates 2; for Population Tubulin-Different-Phenotype (%): 1 µM, compound concentration 1 uM; for Population Mitotic Cells (%): 10 µM, compound concentration 10 uM; outline: as §1
HEK-293T = experiment: Multiplex assay against HEK293T; details: human, number of replicates 2; outline: as §1
[1] = 12 h, 1 µM, compound concentration 1 uM
[2] = 12 h, 10 µM, compound concentration 10 uM
[3] = 24 h, 10 µM, compound concentration 10 uM
[4] = 48 h, 1 µM, compound concentration 1 uM
[5] = 48 h, 10 µM, compound concentration 10 uM
[6] = 24 h, 1 µM, compound concentration 1 uM

Row | SMILES | Population Fragmented Nuclei (%) (U2OS; [2]) | Population Fragmented Nuclei (%) (U2OS; [3]) | Population Fragmented Nuclei (%) (U2OS; [1]) | Total Cell Count (U2OS; [1]) | Total Cell Count (U2OS; [2]) | Population Fragmented Nuclei (%) (U2OS; [6]) | Total Cell Count (U2OS; [6]) | Total Cell Count (U2OS; [3]) | Population Fragmented Nuclei (%) (U2OS; [4]) | Total Cell Count (U2OS; [4]) | Total Cell Count (U2OS; [5]) | Population Mitotic Cells (%) (Fibroblast; 48 h) | Population Fragmented Nuclei (%) (U2OS; [5]) | also measured
1 | CN[C@@H]1CC[C@@H](c2ccc(Cl)c(Cl)c2)c2ccccc21.Cl | 35% and 9% | 32% and 8% |  |  |  |  |  |  |  |  |  |  |  | Population Mitochondria Different-Phenotype (%) (U2OS; [1]): 14% and 3%; Population Healthy Nuclei (%) (U2OS; [3]): 17% and 56%; Population Mitotic Cells (%) (U2OS; [4]): 14% and 47%; Population Healthy Nuclei (%) (U2OS; [5]): 11% and 45%; Population Tubulin-Different-Phenotype (%) (Fibroblast; 48 h): 29% and 9%
2 | CCc1cnn2c(NCc3ccc[n+]([O-])c3)cc(N3CCCCC3CCO)nc12 (stereo not drawn) |  |  | 42% and 10% | 35 and 124 | 45 and 232 | 48% and 15% | 25 and 128 | 49 and 219 | 46% and 9% | 32 and 120 | 209 and 52 |  |  | Population Mitotic Cells (%) (U2OS; [1]): 41% and 8%; Population Membrane Permeable-Phenotype (%) (U2OS; [2]): 38% and 4%; Population Mitochondria Different-Phenotype (%) (U2OS; [6]): 20% and 5%; Population Membrane Permeable-Phenotype (%) (U2OS; [5]): 56% and 16%; Population Mitotic Cells (%) (U2OS; [5]): 4% and 17%; Population Mitotic Cells (%) (HEK-293T; [2]): 47% and 13%
3 | NCC1CCC(CNc2nc(NCc3ccccc3OC(F)(F)F)ncc2[N+](=O)[O-])CC1 (stereo not drawn) |  |  |  | 51 and 273 | 41 and 239 |  | 59 and 365 | 35 and 245 |  | 78 and 644 | 33 and 256 | 10% and 33% |  | 
4 | CNC(=O)c1c(F)cccc1Nc1nc(Nc2cc3c(cc2OC)CCN3C(=O)CN(C)C)nc2[nH]ccc12 | 64% and 14% | 64% and 12% | 25% and 3% | 51 and 173 |  | 18% and 3% | 59 and 237 | 800 and 222 | 14% and 2% | 77 and 338 | 809 and 193 |  | 64% and 17% | Population Membrane Permeable-Phenotype (%) (U2OS; [2]): 2% and 25%; Population Mitochondria Different-Phenotype (%) (U2OS; [2]): 2% and 32%; Population Pyknosed Nuclei (%) (U2OS; [2]): 1% and 50%; Population Membrane Permeable-Phenotype (%) (U2OS; [3]): 2% and 35%; Population Mitochondria Different-Phenotype (%) (U2OS; [3]): 3% and 54%; Population Pyknosed Nuclei (%) (U2OS; [3]): 2% and 63%; Population Healthy Nuclei (%) (U2OS; [5]): 32% and 10%; Population Membrane Permeable-Phenotype (%) (U2OS; [5]): 2% and 47%; Population Mitochondria Different-Phenotype (%) (U2OS; [5]): 1% and 47%; Population Pyknosed Nuclei (%) (U2OS; [5]): 2% and 71%; Population Tubulin-Different-Phenotype (%) (Fibroblast; 24 h): 4% and 17%; Population Mitotic Cells (%) (HEK-293T; [6]): 60% and 16%
5 | N=C(N)NCCC[C@H](NC(=O)COCC(c1ccccc1)c1ccccc1)C(=O)O.O=C(O)C(F)(F)F |  |  | 46% and 2% | 30 and 207 | 30 and 199 | 25% and 1% | 27 and 290 | 38 and 293 | 21% and 3% | 41 and 664 | 65 and 606 | 38% and 5% |  | Population Mitotic Cells (%) (U2OS; [1]): 0% and 55%; Population Pyknosed Nuclei (%) (U2OS; [2]): 26% and 8%; Population Pyknosed Nuclei (%) (U2OS; [5]): 21% and 4%
6 | Br.Cc1cccc(C2CN(C)CCc3c2cc(O)c(O)c3Cl)c1 (stereo not drawn) |  | 2% and 25% | 27% and 5% | 47 and 275 | 221 and 21 | 2% and 13% | 375 and 45 | 294 and 16 | 15% and 3% | 59 and 789 | 30 and 429 | 55% and 0% | 13% and 1% | Population Apoptotic (%) (U2OS; [2]): 58% and 0%
7 | CC1(C)C(=O)N([C@H]2CCc3c(O)cccc32)c2nc(Nc3cccc(CN4CCCC4)c3)ncc21 | 32% and 8% | 31% and 8% | 51% and 7% | 35 and 190 | 28 and 190 | 43% and 11% | 32 and 201 | 29 and 180 | 50% and 13% | 33 and 194 | 179 and 39 |  | 6% and 55% | Population Healthy Nuclei (%) (U2OS; [4]): 12% and 38%; Population Mitotic Cells (%) (U2OS; [5]): 2% and 18%; Population Mitotic Cells (%) (HEK-293T; [6]): 11% and 66%
